In the supplement of paper PMC11369174, “Proteome-scale characterisation of motif-based interactome rewiring by disease mutations” (Molecular Systems Biology, 2024) one finds mutation enrichment score data, which are given here for 43 molecules.

The other results are listed elsewhere or left out. The data scatter; read single values as rough.

One assay has as its target T1, MSN_FERM_1_P26038_1_322.
T1 chain: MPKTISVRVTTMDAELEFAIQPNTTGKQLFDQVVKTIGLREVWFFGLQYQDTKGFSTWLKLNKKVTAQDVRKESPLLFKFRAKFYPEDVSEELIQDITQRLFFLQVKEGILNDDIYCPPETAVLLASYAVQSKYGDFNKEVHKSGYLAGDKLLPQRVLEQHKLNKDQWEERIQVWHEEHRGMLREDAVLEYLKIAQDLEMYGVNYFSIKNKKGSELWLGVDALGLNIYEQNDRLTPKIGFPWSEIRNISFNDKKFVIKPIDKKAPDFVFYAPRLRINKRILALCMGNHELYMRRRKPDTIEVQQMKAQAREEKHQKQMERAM
The assay is described as follows: mutation enrichment score (mutant vs wild-type peptide binding to bait); baits are purified protein domains named by gene / domain / UniProt id / residues; peptides come from disordered regions of human proteins; higher = mutation enhances binding relative to wild type. Conditions: number of wild-type / mutant comparisons summed (bounds the score): 6; paper call: no_effect; wild-type window: ….
Regarding KHPDRFAYPIPHTTRPPKKDKENGKNYYFVSHDQMMQDISN [E782K E782K], the mutation enrichment score is -1. Turning to PPEELSMFQLPTLNFSPEQVDSVCETLEETGDIERLGRFLW [A93D A93D], the mutation enrichment score was determined as 5.

TSDSDQQAYLVQRGAEDRDWQQQRNIPIHSCPKCGEVLPDI [R545Q R545Q]: the mutation enrichment score was found to be 2.6. In the case of GEDYQYIERGETYCLYLPETLPEDGGEYMCKAVNNKGSAAS [F645L F645L], the mutation enrichment score turned out to be 1.

Consider LHQSTYQRYDVDDPFSVEEGVSYATEGESQEDWGGPTEDKG [F708V F708V], for which the mutation enrichment score came out at 4. Regarding NLVNTYYDFSKGIDHKKSDDGTLVDRILEPQDVVRFGVFLY [R119G R119G], the mutation enrichment score was -2. Turning to KSPDFEEVTDRSQLDISEPYEVYRIVPEEEQKCKLGVATAG [K108E K108E], the mutation enrichment score was -2. On to SSRACDCDQQIDSCTYEAMYDIQSQAPSITESSTFGEGNLA [N736D N736D], for which the mutation enrichment score was -4. For KLDELDCLIKGILYIDSVGFSGRSQCYYFENPADSEKCQKL [N355S N355S], the mutation enrichment score is -2. Take IHYLDIVDCKSYDTGEVKVTVENPEGVIEHKVKLEIQQRED [A1914V A1914V]: the mutation enrichment score was 4. For QSMLQNDGKCCPFMESMLRYDVYGGENEVIPEVLRKSHSHF [E608D E608D], the mutation enrichment score is 1.5.

Consider PKKDEENGKNYYFVSHDQMMEDISNNEYLEYGSHEDAMYGT [Q798E Q798E], for which the mutation enrichment score was -3. For LAVHGAGNLVNTYYDFSKGIGHKKSDDRTLVDRILEPQDVV [D112G D112G], the mutation enrichment score was -4.2. Still for that read-out and setting: for LAVHGAGNLVNTYYDFSKGINHKKSDDRTLVDRILEPQDVV [D112N D112N] the value was -5; for GNLVNTYYDFSKGIDHKKSDGRTLVDRILEPQDVVRFGVFL [D118G D118G], -1.1; for DELDCLIKGILYIDSVGFNGQSQCYYFENPADSEKCQKLPF [R357Q R357Q], -2.

As to EQSEKAAMYDIISSPSKDSTNLTLRLSRVRSSDMDQQEDMI [K357N K357N], the mutation enrichment score was -1.3. As for CRPQENISSRWMVPTSVERLGEGGSIPKVLRSSVRVAQKGE [R1176G R1176G], the mutation enrichment score was 4.3. Same read-out and setting: for SEAEGESWYPTNMEELVTVDKVGEEEDFIVEPDIPELEEIV [E913K E913K] the value was -2; for EEERRESHHLRSPAYSVSTIQPREDLLSPVQDADRFYRGIL [E839Q E839Q], -5; for IPHPHLHQYEVSSSLGYTSTGDVLENMMEPPQRDSSAPGRF [R555G R555G], 2.9. For the molecule SGPGLSPGMVRANLPQSFQVNTSKAGVAPLQVKVQGPKGLV [D1474N D1474N], the mutation enrichment score worked out at 3. Consider GRSAGRSGRSGSFLYQVSTHKQSESAHGRTGTSTGGRQGSH [E2422K E2422K], for which the mutation enrichment score came to 5. As for GEEVSIRNSPTDTILFIRAAHRVHSGTYQVTVRIENMEDKA [R1036H R1036H], the mutation enrichment score is -1.

For the next assay, the target named is T2, RDX_FERM_1_P35241_5_295.
T2 chain: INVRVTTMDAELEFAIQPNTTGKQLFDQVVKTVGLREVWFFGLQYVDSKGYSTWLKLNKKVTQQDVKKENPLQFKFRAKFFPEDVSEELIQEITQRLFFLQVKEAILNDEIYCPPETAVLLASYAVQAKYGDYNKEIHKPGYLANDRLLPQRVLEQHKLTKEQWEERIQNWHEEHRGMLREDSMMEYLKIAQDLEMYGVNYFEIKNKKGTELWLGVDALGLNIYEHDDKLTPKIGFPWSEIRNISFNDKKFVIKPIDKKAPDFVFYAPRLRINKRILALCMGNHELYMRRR
Described as above. As to conditions: number of wild-type / mutant comparisons summed (bounds the score): 6; paper call: no_effect; wild-type window: ….
Turning to PPEELSMFQLPTLNFSPEQVDSVCETLEETGDIERLGRFLW [A93D A93D], the mutation enrichment score stood at 3. Same read-out and setting: for LHQSTYQRYDVDDPFSVEEGVSYATEGESQEDWGGPTEDKG [F708V F708V] the value was 2. On to SSRACDCDQQIDSCTYEAMYDIQSQAPSITESSTFGEGNLA [N736D N736D], for which the mutation enrichment score was -5.6.

As to APPEELSMFQLPTLNFSPEQGASVCETLEETGDIERLGRFL [V92G V92G], the mutation enrichment score is 4.

Consider LAVHGAGNLVNTYYDFSKGIGHKKSDDRTLVDRILEPQDVV [D112G D112G], for which the mutation enrichment score is -3.9. Regarding LAVHGAGNLVNTYYDFSKGINHKKSDDRTLVDRILEPQDVV [D112N D112N], the mutation enrichment score is -4. As to EQSEKAAMYDIISSPSKDSTNLTLRLSRVRSSDMDQQEDMI [K357N K357N], the mutation enrichment score was determined as 0.085.

Take IPHPHLHQYEVSSSLGYTSTGDVLENMMEPPQRDSSAPGRF [R555G R555G]: the mutation enrichment score came out at 3. Consider GRSAGRSGRSGSFLYQVSTHKQSESAHGRTGTSTGGRQGSH [E2422K E2422K], for which the mutation enrichment score is 2.

A further assay addresses MAP1LC3B_ATG8__Q9GZQ8_2_119. Described as above. Conditions: number of wild-type / mutant comparisons summed (bounds the score): 12; paper call: no_effect; wild-type window: ….
STIQVAPANYPNEDGFSPNNGDMFVDLPFPDDMDNDIGILM [D2023G D2023G]: the mutation enrichment score was -3. Consider PYSARESLSEVQSLSSFQSELCDDNGYHWDTSDWMPSVPLP [S4375L S4375L], for which the mutation enrichment score was found to be 4. Turning to HTTRSVSMQDEGKTHSITFKNLSIDDTSQIRVEAMGMSSEA [D12916N D12916N], the mutation enrichment score amounted to 0.

Another assay concerns the target T2, RDX_FERM_1_P35241_5_295. The assay is described as above. Conditions: number of wild-type / mutant comparisons summed (bounds the score): 12; paper call: no_effect; wild-type window: ….
As to NLVNTYYDFSKGIDHKKSDDGTLVDRILEPQDVVRFGVFLY [R119G R119G], the mutation enrichment score was -3.3. For the molecule GNLVNTYYDFSKGIDHKKSDGRTLVDRILEPQDVVRFGVFL [D118G D118G], the mutation enrichment score is -3.1.

A further assay deals with MDM2_p53-binding-domain__Q00987_17_125. The description is as above. Conditions: number of wild-type / mutant comparisons summed (bounds the score): 8; paper call: no_effect; wild-type window: ….
For NDRLAVYIDRVRSLETENAGRRLRITESEEVVSREVSGIKA [L59R L59R], the mutation enrichment score is 2. The same measure, in the same setting: for RQMQQQAATAQAAAAAQAAAMAGNIPGPGSVGGIAPAISLS [V465M V465M] the value was -2.

Another assay addresses MAP1LC3A_ATG8__Q9H492_2_121. Described as above. As to conditions: number of wild-type / mutant comparisons summed (bounds the score): 12; paper call: no_effect; wild-type window: ….
With GHSKILGETSLMRTLCGTPTCLAPEVLVSVGTAGYNRAVDC [Y390C Y390C], the mutation enrichment score was -3.

GHSKILGETSLMRTLCGTPTFLAPEVLVSVGTAGYNRAVDC [Y390F Y390F]: the mutation enrichment score is -3. GHSKILGETSLMRTLCGTPTSLAPEVLVSVGTAGYNRAVDC [Y390S Y390S]: the mutation enrichment score was -3.

As to MAEPRQEFEVMEDHAGTYGLHDRKD [R5H R5H], the mutation enrichment score came to 4.5.

Another assay has as its target MDM2_p53-binding-domain__Q00987_17_125. The description is as above. As to conditions: number of wild-type / mutant comparisons summed (bounds the score): 16; paper call: enhanced; wild-type window: ….
Consider DRYSVGLLDMTKQKEFFDVWLVLMGEVPPYSGPRTPDGREI [P293L P293L], for which the mutation enrichment score was found to be 7.

In another assay the target is NEDD4_WW_2_P46934_765_803. The description is as above. Conditions: number of wild-type / mutant comparisons summed (bounds the score): 6; paper call: no_effect; wild-type window: ….
Sequence of NEDD4_WW_2_P46934_765_803 (chain, as listed by the source): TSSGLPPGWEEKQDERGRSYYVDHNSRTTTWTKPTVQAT
DRYSVGLLDMTKQKEFFDVWLVLMGEVPPYSGPRTPDGREI [P293L P293L]: the mutation enrichment score was -3.

Another assay concerns the target SMURF2_WW_3_Q9HAU4_298_330. Described as above. As to conditions: number of wild-type / mutant comparisons summed (bounds the score): 6; paper call: no_effect; wild-type window: ….
Take DRYSVGLLDMTKQKEFFDVWLVLMGEVPPYSGPRTPDGREI [P293L P293L]: the mutation enrichment score was -5.

For a further assay, the target named is WWTR1_WW__Q9GZV5_122_160. The description is as above. As to conditions: number of wild-type / mutant comparisons summed (bounds the score): 6; paper call: no_effect; wild-type window: ….
Sequence of WWTR1_WW__Q9GZV5_122_160 (chain, as listed by the source): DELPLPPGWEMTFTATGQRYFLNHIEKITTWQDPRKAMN
As for DRYSVGLLDMTKQKEFFDVWLVLMGEVPPYSGPRTPDGREI [P293L P293L], the mutation enrichment score was -2.

In the next assay the target is T1, MSN_FERM_1_P26038_1_322. Described as above. Conditions: number of wild-type / mutant comparisons summed (bounds the score): 6; paper call: enhanced; wild-type window: ….
With FNFETFGNSMICLFQITTSADWDGLLAPILNSKPPDCDPNK [G1725D G1725D], the mutation enrichment score worked out at 6. On to APPEELSMFQLPTLNFSPEQGASVCETLEETGDIERLGRFL [V92G V92G], for which the mutation enrichment score was 6.

The target in the next assay is MAP1LC3B_ATG8__Q9GZQ8_2_119. The assay is described as above. Conditions: number of wild-type / mutant comparisons summed (bounds the score): 6; paper call: no_effect; wild-type window: ….
As to YDADSDFEVLMKTAHGHLVPNRVDKDKEATKPEFNNHKDYA [D1357N D1357N], the mutation enrichment score worked out at 1. The same measure, in the same setting: for QLGLRRLLLLLSPQSPTHGLQSLATHTLHALTPLL [R404Q R404Q] the value was -2; for HSSCSSPSRDCQAERKEGSLLHSDDAGDYEQLFSSTQGEIS [P975L P975L], 3.1; for TLGWSKPVYDGGSAVTGYVVKIRQGEEEEWTTVSTKGEVRT [E28131K E28131K], -3.

Turning to RERESLVKKKVAEYTILEGKFQKTLIDLEKREQQLASVESE [L712F L712F], the mutation enrichment score was -2.

A further assay concerns the target MDM2_p53-binding-domain__Q00987_17_125. The description is as above. Conditions: number of wild-type / mutant comparisons summed (bounds the score): 16; paper call: no_effect; wild-type window: ….
Regarding GTSLGPGLGPRVGPLLVRRGVTLPVPGPRVLETRPALQGLL [E129V E129V], the mutation enrichment score was 2.

For the next assay, the target named is USP7_MATH-TRAF__Q93009_53_206. The description is as above. As to conditions: number of wild-type / mutant comparisons summed (bounds the score): 10; paper call: enhanced; wild-type window: ….
Sequence of USP7_MATH-TRAF__Q93009_53_206 (chain, as listed by the source): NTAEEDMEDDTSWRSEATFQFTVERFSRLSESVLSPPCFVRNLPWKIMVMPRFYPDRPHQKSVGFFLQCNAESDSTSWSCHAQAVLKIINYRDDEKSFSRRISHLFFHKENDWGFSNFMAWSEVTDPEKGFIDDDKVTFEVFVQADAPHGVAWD
With CRPQENISSRWMVPTSVERLGEGGSIPKVLRSSVRVAQKGE [R1176G R1176G], the mutation enrichment score was 6.

Another assay has as its target MAP1LC3A_ATG8__Q9H492_2_121. The description is as above. Conditions: number of wild-type / mutant comparisons summed (bounds the score): 18; paper call: enhanced; wild-type window: ….
As for KTNLAAYVPLLTQGWAEILVPRPTGNTSWLMSLENPLSPFS [R1200P R1200P], the mutation enrichment score is 13.
